Experimental data reported in the supplement of paper PMC8728848.
The other results are listed elsewhere or left out.

What was measured:
Test in all cases: glycan array binding signal (z-score within array); higher = stronger binding
Conditions in all cases: glycan notation: IUPAC condensed, linker removed
[1] = molecular target: Neu5Ac(a2-6)GalNAc
Method in brief: (§1)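 The Consortium for Functional Glycomics database supplied 3228 glycan arrays, of which those lacking an available protein sequence were dropped. The binding signal, a within-array Z-score, was averaged across arrays of the same protein sequence and across linkers. Negative scores can be read as non-binding.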

[2] = molecular target: Neu5Ac(a2-6)GalNAc(b1-4)GlcNAc
Method in brief: as §1

[3] = molecular target: Neu5Ac(a2-6)GlcNAc(b1-4)GlcNAc
Method in brief: as §1

[4] = molecular target: Neu5Ac(a2-6)GlcNAc(b1-4)GlcNAc(b1-4)GlcNAc
Method in brief: as §1

[5] = molecular target: Neu5Ac(a2-8)Neu5Ac
Method in brief: as §1

[6] = molecular target: Neu5Ac(a2-8)Neu5Ac(a2-3)Gal(b1-4)Glc
Method in brief: as §1

[7] = molecular target: Neu5Ac(a2-8)Neu5Ac(a2-3)[GalNAc(b1-4)]Gal(b1-4)Glc
Method in brief: as §1

[8] = molecular target: Neu5Ac(a2-8)Neu5Ac(a2-8)Neu5Ac
Method in brief: as §1

[9] = molecular target: Neu5Ac(a2-8)Neu5Ac(a2-8)Neu5Ac(a2-3)Gal(b1-4)Glc
Method in brief: as §1

[10] = molecular target: Neu5Ac(a2-8)Neu5Ac(a2-8)Neu5Ac(a2-3)[GalNAc(b1-4)]Gal(b1-4)Glc
Method in brief: as §1

[11] = molecular target: Neu5Ac(a2-8)Neu5Ac(a2-8)Neu5Ac(a2-8)Neu5Ac(a2-3)[GalNAc(b1-4)]Gal(b1-4)Glc
Method in brief: as §1

[12] = molecular target: Neu5Ac(b2-6)Gal(b1-4)GlcNAc
Method in brief: as §1

[13] = molecular target: Neu5Ac(b2-6)GalNAc
Method in brief: as §1

[14] = molecular target: Neu5Ac9Ac(a2-3)Gal(b1-3)GlcNAc
Method in brief: as §1

[15] = molecular target: Neu5Ac9Ac(a2-3)Gal(b1-4)GlcNAc
Method in brief: as §1

[16] = molecular target: Neu5Ac9Ac(a2-6)Gal(b1-4)GlcNAc
Method in brief: as §1

[17] = molecular target: Neu5Gc(a2-3)Gal(b1-3)GlcNAc
Method in brief: as §1

[18] = molecular target: Neu5Gc(a2-3)Gal(b1-3)[Fuc(a1-4)]GlcNAc
Method in brief: as §1

[19] = molecular target: Neu5Gc(a2-3)Gal(b1-4)Glc
Method in brief: as §1

[20] = molecular target: Neu5Gc(a2-3)Gal(b1-4)GlcNAc
Method in brief: as §1

[21] = molecular target: Neu5Gc(a2-3)Gal(b1-4)[Fuc(a1-3)]GlcNAc
Method in brief: as §1

[22] = molecular target: Neu5Gc(a2-6)Gal(b1-4)GlcNAc
Method in brief: as §1

[23] = molecular target: Neu5Gc(a2-6)GalNAc
Method in brief: as §1

[24] = molecular target: Neu5Gc(b2-6)Gal(b1-4)GlcNAc
Method in brief: as §1

B1: Neuropilin-2 (Homo sapiens), O60462 (protein)
chain: MDMFPLTWVFLALYFSRHQVRGQPDPPCGGRLNSKDAGYITSPGYPQDYPSHQNCEWIVYAPEPNQKIVLNFNPHFEIEKHDCKYDFIEIRDGDSESADLLGKHCGNIAPPTIISSGSMLYIKFTSDYARQGAGFSLRYEIFKTGSEDCSKNFTSPNGTIESPGFPEKYPHNLDCTFTILAKPKMEIILQFLIFDLEHDPLQVGEGDCKYDWLDIWDGIPHVGPLIGKYCGTKTPSELRSSTGILSLTFHTDMAVAKDGFSARYYLVHQEPLENFQCNVPLGMESGRIANEQISASSTYSDGRWTPQQSRLHGDDNGWTPNLDSNKEYLQVDLRFLTMLTAIATQGAISRETQNGYYVKSYKLEVSTNGEDWMVYRHGKNHKVFQANNDATEVVLNKLHAPLLTRFVRIRPQTWHSGIALRLELFGCRVTDAPCSNMLGMLSGLIADSQISASSTQEYLWSPSAARLVSSRSGWFPRIPQAQPGEEWLQVDLGTPKTVKGVIIQGARGGDSITAVEARAFVRKFKVSYSLNGKDWEYIQDPRTQQPKLFEGNMHYDTPDIRRFDPIPAQYVRVYPERWSPAGIGMRLEVLGCDWTDSKPTVETLGPTVKSEETTTPYPTEEEATECGENCSFEDDKDLQLPSGFNCNFDFLEEPCGWMYDHAKWLRTTWASSSSPNDRTFPDDRNFLRLQSDSQREGQYARLISPPVHLPRSPVCMEFQYQATGGRGVALQVVREASQESKLLWVIREDQGGEWKHGRIILPSYDMEYQIVFEGVIGKGRSGEIAIDDIRISTDVPLENCMEPISAFAGENFKVDIPEIHEREGYEDEIDDEYEVDWSNSSSATSGSGAPSTDKEKSWLYTLDPILITIIAMSSLGVLLGATCAGLLLYCTCSYSGLSSRSCTTLENYNFELYDGLKHKVKMNHQKCCSEA
Question: With B1 as the binder, how does the “glycan array binding signal (z-score)” value [1] read?
Answer: The value was -0.647.

Question: And the “glycan array binding signal (z-score)” value [2]?
Answer: Its value is -0.685.

Question: What about the “glycan array binding signal (z-score)” value [3] of the same binder?
Answer: Its value is 0.338.

Question: And the “glycan array binding signal (z-score)” value [4]?
Answer: The value was -0.658.

Question: What about the “glycan array binding signal (z-score)” value [5] of the same binder?
Answer: Its value is 0.098.

Question: And the “glycan array binding signal (z-score)” value [6]?
Answer: Its value is -0.423.

Question: What about the “glycan array binding signal (z-score)” value [7] of the same binder?
Answer: Its value is -0.46.

Question: And the “glycan array binding signal (z-score)” value [8]?
Answer: Its value is -0.338.

Question: And the “glycan array binding signal (z-score)” value [9]?
Answer: Its value is -0.788.

Question: And the “glycan array binding signal (z-score)” value [10]?
Answer: Its value is -0.568.

Question: What about the “glycan array binding signal (z-score)” value [11] of the same binder?
Answer: The value was 0.003.

Question: What about the “glycan array binding signal (z-score)” value [12] of the same binder?
Answer: The value was -0.691.

Question: And the “glycan array binding signal (z-score)” value [13]?
Answer: Its value is -0.561.

Question: What about the “glycan array binding signal (z-score)” value [14] of the same binder?
Answer: The value was -0.436.

Question: What about the “glycan array binding signal (z-score)” value [15] of the same binder?
Answer: The value was -0.232.

Question: What about the “glycan array binding signal (z-score)” value [16] of the same binder?
Answer: The value was 0.76.

Question: What about the “glycan array binding signal (z-score)” value [17] of the same binder?
Answer: Its value is 0.011.

Question: And the “glycan array binding signal (z-score)” value [18]?
Answer: The value was -0.777.

Question: What about the “glycan array binding signal (z-score)” value [19] of the same binder?
Answer: Its value is 0.728.

Question: And the “glycan array binding signal (z-score)” value [20]?
Answer: The value was -0.202.

Question: What about the “glycan array binding signal (z-score)” value [21] of the same binder?
Answer: Its value is 0.171.

Question: And the “glycan array binding signal (z-score)” value [22]?
Answer: Its value is 0.3.

Question: What about the “glycan array binding signal (z-score)” value [23] of the same binder?
Answer: The value was -0.378.

Question: And the “glycan array binding signal (z-score)” value [24]?
Answer: Its value is -0.111.
